Source: PubChem BioAssay AID743255 (National Center for Advancing Translational Sciences (NCATS), 2014)
Screen size: about 390,000 compounds; about 910 (0.23%) were called active. Another 5% or so got no clear call; they are omitted. Calls come from the whole dose curve; as a rule, active = well fitted inhibition curve with a large enough effect; inconclusive = small, poorly fitted or top-dose-only effect; inactive = no such curve, though single readings can be large or run the other way. Only a part is listed here, and it is no random draw. More than one record can exist for a structure, and the calls need not agree.

Each molecule was assayed against Ubiquitin carboxyl-terminal hydrolase 1 (Homo sapiens) (UniProt O94782) (assay: Inhibitors of USP1/UAF1: Primary Screen). Settings: recombinant USP1/UAF1, Ub-Rhodamine cleavage fluorescence; activity change, negative = inhibition: at 57.1 µM (top of the series).
Summary of the method: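 Step one: compound is pinned into 1nM USP1/UAF1 in HEPES pH 7.8 buffer with TCEP. Step two: 15 min room-temperature incubation. Step three: Ub-Rho (150nM final) starts cleavage, tracked by fluorescence over six one-minute reads.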
% is set by controls: 0 for no effect and ±100 for the full control effect; potency is the fitted concentration of half-maximal effect.
Note: nearly all actives have a fitted effect of over 60% in size.

UniProt O94782, sequence (O94782 whole entry, looked up): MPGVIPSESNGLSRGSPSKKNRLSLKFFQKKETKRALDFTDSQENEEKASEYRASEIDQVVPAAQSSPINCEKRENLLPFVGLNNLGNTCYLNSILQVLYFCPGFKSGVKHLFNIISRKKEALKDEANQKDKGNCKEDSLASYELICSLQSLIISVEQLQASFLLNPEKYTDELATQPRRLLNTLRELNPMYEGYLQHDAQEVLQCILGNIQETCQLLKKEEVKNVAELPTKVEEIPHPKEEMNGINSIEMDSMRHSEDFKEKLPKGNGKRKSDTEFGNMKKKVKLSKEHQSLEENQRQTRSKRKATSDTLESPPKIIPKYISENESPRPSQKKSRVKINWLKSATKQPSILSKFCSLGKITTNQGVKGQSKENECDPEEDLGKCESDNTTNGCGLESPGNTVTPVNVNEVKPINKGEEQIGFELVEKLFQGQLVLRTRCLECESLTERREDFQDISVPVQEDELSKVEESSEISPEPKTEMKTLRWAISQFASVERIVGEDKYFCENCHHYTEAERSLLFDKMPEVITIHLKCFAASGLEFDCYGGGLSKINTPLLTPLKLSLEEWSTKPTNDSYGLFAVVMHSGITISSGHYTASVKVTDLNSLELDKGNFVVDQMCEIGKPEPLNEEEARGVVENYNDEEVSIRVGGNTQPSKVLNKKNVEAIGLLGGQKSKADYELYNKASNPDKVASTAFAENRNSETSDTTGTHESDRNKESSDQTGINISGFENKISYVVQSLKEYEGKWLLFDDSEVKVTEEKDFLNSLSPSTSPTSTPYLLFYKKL

Activity change, negative = inhibition, inactive:
CNC(=O)c1sc(N2N=C3/C(=C/c4ccccc4)CCCC3C2c2ccccc2)nc1C (stereo unspecified) -19.7%
O=c1c2ccccc2nc(-c2cccc(Cl)c2)n1O 13.1%
CCOc1ccc(CCNC(=O)c2ccc3nc(CC)c(CC)nc3c2)cc1 -3.05%
COc1cc(NC(=O)Cn2c(C)cc3ccccc3c2=O)cc(OC)c1OC -7.37%
CCCN1C(=O)/C(=C/C=C2\N(CC)c3ccccc3C2(C)C)SC1=S 75.5%
C[C@@H]1CN([C@H](C)CO)C(=O)c2cc(Br)cnc2O[C@H]1CN(C)C(=O)Cc1ccccc1 -16.1%
O=C(Nc1ccccc1)c1ccc(NCCc2ccccc2)c([N+](=O)[O-])c1 77.9%
O=C(Nc1ccc2c(c1)OCCO2)c1coc2ccccc2c1=O 82.7%
CCN1C(=O)[C@@H]2[C@@H](c3ccc(-c4ccc(Cl)c(Cl)c4)c(OC)c3)N3CCCC[C@@]3(C(=O)OC)[C@@H]2C1=O -15.5%
O=C(Nc1ccccc1)C1=C[C@@H](c2ccc(C(F)(F)F)cc2)C[C@@H](OCCCCO)O1 -17.3%
CC(C)(C)OC(=O)C[C@@H]1C/C=C\C[C@H](CC(=O)N(CCO)Cc2ccccc2)C(=O)N[C@@H](Cc2ccccc2)COC1=O -28%
C[C@@H]1CN([C@H](C)CO)C(=O)CCCn2nncc2CO[C@@H]1CN(C)S(=O)(=O)c1ccc(-n2cccn2)cc1 -19.7%
CC1(C)C2CC[C@]3(C)C(CC=C4[C@@H]5C[C@@](C)(CO)CC[C@]5(C(=O)O)CC[C@]43C)[C@@]2(C)CC[C@@H]1O (stereo partly specified) -25.7%
OCC[C@@H]1C[C@@H](O)[C@H](O)[C@@]2(CCCCO2)O1 -8.91%
O=C(Nc1ccccc1)/C(=C/c1ccc(F)cc1)NC(=O)c1ccco1 -18.7%
Cc1cc2oc(C(=O)N(Cc3ccc(N(C)C)cc3)CC3CCCO3)c(C)c2cc1C (stereo unspecified) -20.5%
CC(C)(C)OC(=O)C[C@H]1C/C=C\C[C@H](CC(=O)N[C@H](CO)Cc2ccccc2)C(=O)N[C@H](C(C)(C)C)COC1=O 10.1%
COC(=O)c1ccc(NC(=O)c2nn(C)c3c2COc2ccccc2-3)cc1 121%
Cc1ccc(NC(=O)C2CCN(S(=O)(=O)c3c(C)noc3C)CC2)cc1C -17.9%
CC(C)C[C@H](NC(=O)c1[nH]cnc1C(=O)N[C@@H](C)c1ccccc1)C(=O)OC(C)(C)C -19%
CC(C)OC(=O)N(C)C[C@H]1OCc2cnnn2CCCC(=O)N([C@@H](C)CO)C[C@H]1C -28.2%
CN1CCC2(CC1)C1CN(C)CC=C1C(C#N)=C(N)C2(C#N)C#N (stereo unspecified) -18.7%
CN(C(=O)CCNC(=O)Cn1cnc2ccccc2c1=O)c1ccccc1F -1.59%
Cc1ccccc1CS(=O)(=O)Cc1ccc(C(=O)NCCc2ccccc2)o1 -11.9%
C[C@@H]1COC(=O)[C@@H](Cc2ccc(F)cc2)C/C=C\C[C@@H](CC(=O)NCCO)C(=O)N1 -18.3%
COC(=O)[C@@H]1Cc2c([nH]c3ccccc23)C2CCC(=O)N21 (stereo partly specified) -9.37%
C[C@@H](C(=O)NCCc1c[nH]c2ccccc12)[C@@H]1C[C@@]1(C)[C@@H](NC(=O)OCc1ccccc1)c1ccccc1 -16.1%
O=C1NC[C@@H](c2ccccc2)OC(=O)[C@H](Cc2ccc(F)cc2)C/C=C\C[C@@H]1CC(=O)N(CCO)Cc1ccccc1 -7.07%
C=C(C)C(=O)Nc1cccc(C2=NOC3(C2)C[C@@H](C(N)=O)N(C(=O)c2ccc(OC)cc2)C3)c1 (stereo partly specified) 66.9%
C[C@H]1CN([C@@H](C)CO)C(=O)CCCn2nncc2CO[C@@H]1CN(C)S(=O)(=O)c1ccc(-n2cccn2)cc1 -8.17%
COc1cccc(S(=O)(=O)N(C)C[C@@H]2OCc3cnnn3CCCC(=O)N([C@H](C)CO)C[C@H]2C)c1 80.7%
CCn1c2ccccc2c2nnc(N3CCN(c4cc(C)ccc4C)CC3)nc21 33.8%
C[C@H]1CN([C@@H](C)CO)C(=O)CCCn2nncc2CO[C@H]1CN(C)C(=O)c1cc(-c2ccccc2)on1 -20.5%
O=C(c1ccc2c(c1)N(Cc1ccccc1)C(=O)c1ccccc1S2(=O)=O)N1CCCC1 28.9%
Cc1cccc(N2CCN(C(=O)c3nn(C)c4c3CS(=O)(=O)c3ccccc3-4)CC2)c1C 0.12%
C=CCC[C@H](Cc1ccc(F)cc1)C(=O)OC[C@@H](C)NC(=O)[C@H](CC=C)CC(=O)N(CCO)Cc1ccccc1 -33.4%
Cc1cc(C)c(-c2n[nH]c3c2C(c2ccccc2F)N(Cc2ccco2)C3=O)c(O)c1 (stereo unspecified) 21%
Cc1ccc(S(=O)(=O)N2CCOC23CCN(C(=O)C(=O)NCCC(C)C)CC3)cc1 29.2%
C=CCC[C@H](Cc1ccc(F)cc1)C(=O)OC[C@H](Cc1c[nH]c2ccccc12)NC(=O)[C@@H](CC=C)CC(=O)N(CCO)Cc1ccccc1 -15.9%
CCOc1ccccc1NC(=O)CCS(=O)(=O)c1cccc2nsnc12 -19.6%
CCc1ccccc1NC(=O)/C(C#N)=C/c1ccc(Sc2ccccc2)o1 -9.64%
Cn1c(=O)oc2cc(S(=O)(=O)N3CCC(C(=O)NCc4ccccc4Cl)CC3)ccc21 -1.96%
NC(=O)CSc1oc(-c2ccco2)nc1S(=O)(=O)c1ccc(Br)cc1 -17.7%
COc1cc(NC(=O)CN(c2cc(C)cc(C)c2)S(=O)(=O)c2c(C)[nH]c(=O)[nH]c2=O)cc(OC)c1 -18.1%
C[C@H]1CN([C@@H](C)CO)C(=O)CCCn2nncc2CO[C@H]1CN(C)C(=O)c1ccccc1 0.0802%
COc1cccc(CNc2ccc3c(c2)ncn3C)c1OC -25%
Cc1cc(C)cc(NC(=O)Cn2nnc(C(=O)NCc3ccco3)c2N)c1 -17.4%
COCC(=O)N(C)C[C@@H]1Oc2cc(Br)ccc2S(=O)(=O)N([C@H](C)CO)C[C@H]1C -15.9%
COc1ccc(-c2cc(C)no2)cc1S(=O)(=O)N1CCN(c2cccc(C)c2)C(C)C1 (stereo unspecified) -24.6%
C/C(N)=C(/C#N)C(=O)CSc1nnc(Nc2cccc(C)c2)s1 -5.7%
O=C1/C(=C\c2cccs2)SC(=S)N1C1CCS(=O)(=O)C1 (stereo unspecified) -19.2%
CC(C)NC(=O)N(C)C[C@@H]1Oc2cc(Br)ccc2S(=O)(=O)N([C@@H](C)CO)C[C@H]1C -24.3%
CCCCCCN1C[C@@H](n2cc(COC(=O)c3ccccc3)nn2)[C@H](O)C[C@@H]1c1ccc(Cl)cc1 -6.52%
O=C(C[C@@H]1C/C=C\C[C@H](NC(=O)OCC2c3ccccc3-c3ccccc32)C(=O)OC[C@H]2CCCN2C1=O)NCCO -6.9%
C[C@@H]1NS(=O)(=O)c2cc(Cl)ccc2O[C@@H]1c1ccccc1 -8.84%
O=C(NC1CC1)C1=C[C@@H](c2coc3ccccc3c2=O)C[C@@H](OCc2ccc(CO)cc2)O1 -22.3%
Cc1ccccc1CN(C)C[C@@H]1OCc2cnnn2CCCC(=O)N([C@@H](C)CO)C[C@H]1C -20.2%
COc1ccc(N(CC(=O)NCc2ccc(F)cc2)S(=O)(=O)c2c(C)noc2C)cc1 -27.5%
CCc1nonc1NC(=O)c1oc2ccc(F)cc2c1C -11.9%

Potency, inactive:
NC(=NCCCCCCN=C(N)/N=C(\N)Nc1ccc(Cl)cc1)/N=C(\N)Nc1ccc(Cl)cc1

Potency, active:
Cc1ccc(S(=O)(=O)/N=C2/NC(=O)/C(=C/c3cc([N+](=O)[O-])ccc3O)S2)cc1 28.2 µM
CC1CC(=O)c2c(cc3c(-c4c(O)cc(O)c5c(O)c6c(cc45)OC(C)CC6=O)c(O)cc(O)c3c2O)O1 (stereo unspecified) 31.6 µM
O=C(O)c1cc(O)c2c(c1)[C@@H]([C@H]1c3cc(C(=O)O)cc(O)c3C(=O)c3c(O[C@@H]4O[C@H](CO)[C@@H](O)[C@H](O)[C@H]4O)cccc31)c1cccc(OC3O[C@H](CO)[C@@H](O)[C@H](O)[C@H]3O)c1C2=O (stereo partly specified) 5.62 µM
CCN(CC)CCCC(C)n1c2nc(=O)[nH]c(=O)c-2nc2cc(Cl)ccc21 (stereo unspecified) 25.1 µM
C=CCn1c(C)c(/C=C/c2cc[n+](C)cc2)c2ccccc21 35.5 µM
COc1ccc2cc(C(=O)N/N=C/c3sc4ccccc4c3O)ccc2c1 28.2 µM
